# Test results reported in the BET-seq Pho4 binding data (Le et al. 2018).
# The list shows a part of the results. These are noisy estimates, calculated here from bound and input reads.
# Molecular target: T1, Pho4 (S. cerevisiae) (UniProt P07270)
# T1 sequence: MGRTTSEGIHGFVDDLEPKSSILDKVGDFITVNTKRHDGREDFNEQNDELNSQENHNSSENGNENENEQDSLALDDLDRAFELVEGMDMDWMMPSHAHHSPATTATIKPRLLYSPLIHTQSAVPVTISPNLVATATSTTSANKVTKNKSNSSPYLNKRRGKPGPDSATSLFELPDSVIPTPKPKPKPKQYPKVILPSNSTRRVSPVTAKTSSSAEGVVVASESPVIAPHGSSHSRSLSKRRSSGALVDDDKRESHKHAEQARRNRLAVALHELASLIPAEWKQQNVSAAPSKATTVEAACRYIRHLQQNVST
# Experiment: relative binding free energy (BET-seq); higher = weaker binding
# Conditions: reference: library average
row,Sequence,relative binding free energy
1,TTATTCACGTGATGTT,0.31 kcal/mol
2,GGGCGCACGTGAGGCG,0.3 kcal/mol
3,ATGATCACGTGTTGGC,0.33 kcal/mol
4,GCTGCCACGTGGTGTT,-0.1 kcal/mol
5,GAGTGCACGTGTCGTA,0.04 kcal/mol
6,TAGATCACGTGGTTTT,0.14 kcal/mol
7,TTGTTCACGTGCAAAG,0.24 kcal/mol
8,AGTATCACGTGGTTGA,0.09 kcal/mol
9,CGATGCACGTGGAATT,0.24 kcal/mol
10,GTTCTCACGTGAAGTT,0.41 kcal/mol
11,GGAGACACGTGCCGGG,-0.02 kcal/mol
12,GAATGCACGTGGGTTT,0.06 kcal/mol
13,GCCGGCACGTGTGAGT,0.09 kcal/mol
14,TTCGGCACGTGCGTGT,-0.18 kcal/mol
15,AGTTCCACGTGATATG,0.24 kcal/mol
16,GTTTCCACGTGGGACT,0.23 kcal/mol
17,GTTACCACGTGTCGTG,0.08 kcal/mol
18,CGGCGCACGTGGTGTG,-0.23 kcal/mol
19,GTGCGCACGTGGTTGC,-0.08 kcal/mol
20,TTTAACACGTGTGCGA,-0.12 kcal/mol
21,TGGGTCACGTGGTAAT,0.23 kcal/mol
22,CATGACACGTGAGTGG,0.04 kcal/mol
23,CTTAACACGTGTTATA,0.07 kcal/mol
24,TGTGTCACGTGTAAGT,0.02 kcal/mol
25,ATCTGCACGTGTGCGT,-0.07 kcal/mol
26,GGGGTCACGTGTGGTA,0.24 kcal/mol

row,Sequence,relative binding free energy
1,TGTAGCACGTGATCGA,0 kcal/mol
2,CTTGACACGTGGGAAG,0.05 kcal/mol
3,GATTGCACGTGAATGA,0.31 kcal/mol
4,TGTTGCACGTGGTAGT,0.01 kcal/mol
5,TTTGTCACGTGAGGAC,0.14 kcal/mol
6,TAGGACACGTGGAGAG,-0.09 kcal/mol
7,ATTAGCACGTGAATTG,0.26 kcal/mol
8,GTGGGCACGTGTGGTG,0.04 kcal/mol
9,GGGTACACGTGAGTCT,0.46 kcal/mol
10,GGACGCACGTGGAGTT,-0.04 kcal/mol
11,TGGGACACGTGCTGTA,0.04 kcal/mol
12,CGCGGCACGTGGAGGG,-0.22 kcal/mol
13,AGTCTCACGTGGGGAG,0.13 kcal/mol
14,AAATGCACGTGGTGCG,-0.07 kcal/mol
15,TGGACCACGTGTTGGG,0.1 kcal/mol
16,TATGTCACGTGCGGCT,0.09 kcal/mol
17,CATTTCACGTGTATTG,0.09 kcal/mol
18,GATTTCACGTGTGGAA,0.26 kcal/mol
19,CTAGGCACGTGTAGGT,-0.11 kcal/mol
20,GGAGACACGTGGATTG,0.08 kcal/mol
21,GCATACACGTGGGGGG,-0.02 kcal/mol
22,ATAAACACGTGGGTGA,-0.07 kcal/mol
23,CTTGACACGTGCGTGT,-0.15 kcal/mol
24,TTTTTCACGTGCTACG,0.19 kcal/mol
25,TTGAACACGTGAGGTT,0.28 kcal/mol
26,TGTTACACGTGGGGTA,-0.03 kcal/mol

row,Sequence,relative binding free energy
1,CAGCGCACGTGGGCGG,-0.28 kcal/mol
2,AGTATCACGTGCAGGT,0.18 kcal/mol
3,GGTTTCACGTGACTGA,0.36 kcal/mol
4,TATGACACGTGAGGGG,0.28 kcal/mol
5,TGATACACGTGTGGTA,0.16 kcal/mol
6,CTGTTCACGTGAATTG,0.31 kcal/mol
7,ATTGTCACGTGGATGA,0.14 kcal/mol
8,ATTATCACGTGGATAG,0.24 kcal/mol
9,TGCTGCACGTGCAGGG,-0.08 kcal/mol
10,TGTTGCACGTGCGAGC,0 kcal/mol
11,TTGTTCACGTGACGAG,0.4 kcal/mol
12,ATCAGCACGTGGTGTC,0.04 kcal/mol
13,AAATACACGTGGTTAT,-0.03 kcal/mol
14,GCTAACACGTGTTGGG,0.1 kcal/mol
15,AGGTTCACGTGGGGTT,0.2 kcal/mol
16,GTGTCCACGTGGTTGT,0.06 kcal/mol
17,CATAGCACGTGTCGGG,0.05 kcal/mol
18,CGTTTCACGTGTGTGC,0.23 kcal/mol
19,TGGCTCACGTGCGTTT,0.18 kcal/mol
20,AGGGGCACGTGTGAGC,-0.05 kcal/mol
21,ATAGACACGTGGAGTA,0.15 kcal/mol
22,AGGTACACGTGATGGT,0.11 kcal/mol
23,AGTCGCACGTGGATGA,0.01 kcal/mol
24,TGGATCACGTGGTAAG,0.03 kcal/mol
25,CGCTGCACGTGGTGGA,-0.16 kcal/mol
26,TTGTGCACGTGCAGTT,-0.13 kcal/mol

row,Sequence,relative binding free energy
1,CAGGGCACGTGTGGAT,-0.03 kcal/mol
2,TGGCACACGTGGTCGG,-0.09 kcal/mol
3,GGGGTCACGTGGCTGC,0.03 kcal/mol
4,AGAGTCACGTGGGGGG,0.02 kcal/mol
5,TGTGGCACGTGCGGCA,-0.13 kcal/mol
6,TGGGGCACGTGGCAGT,-0.12 kcal/mol
7,TTTATCACGTGCTGTC,0.35 kcal/mol
8,ATATTCACGTGAGGTA,0.41 kcal/mol
9,GGACTCACGTGGGTCG,0.15 kcal/mol
10,TAGTTCACGTGTTAGA,0.25 kcal/mol
11,TATTGCACGTGTGATG,0.1 kcal/mol
12,GTTAACACGTGTAAAT,0.15 kcal/mol
13,TGTTGCACGTGTAGGT,0.08 kcal/mol
14,CGTGGCACGTGGCATG,-0.26 kcal/mol
15,AATGACACGTGAGTAG,0.16 kcal/mol
16,TATTTCACGTGACATG,0.27 kcal/mol
17,TGATTCACGTGATGGC,0.24 kcal/mol
18,TGGAGCACGTGGACGG,-0.01 kcal/mol
19,TTAAGCACGTGCGTTT,-0.02 kcal/mol
20,GGCAACACGTGGGTGG,0.07 kcal/mol
21,GGAGGCACGTGGTTAC,0.03 kcal/mol
22,TTTGCCACGTGCGGTG,-0.22 kcal/mol
23,GAGGTCACGTGTTTCG,0.32 kcal/mol
24,CGGAACACGTGTGGGC,0.08 kcal/mol
25,TACGTCACGTGTATGT,0 kcal/mol
26,TCTGGCACGTGATTGG,0.08 kcal/mol

row,Sequence,relative binding free energy
1,CAGGGCACGTGAGCGC,0.27 kcal/mol
2,GTTTGCACGTGCTTGT,-0.03 kcal/mol
3,GTATTCACGTGCAATT,0.41 kcal/mol
4,TTGAGCACGTGTAGTC,-0.06 kcal/mol
5,AGGGTCACGTGCTCGG,0.2 kcal/mol
6,ATGGCCACGTGGGAAG,-0.21 kcal/mol
7,GGGAACACGTGGTGTG,-0.01 kcal/mol
8,TTATACACGTGGTCTG,-0.04 kcal/mol
9,GGAGGCACGTGCTGCG,-0.26 kcal/mol
10,CTAGGCACGTGGAGGA,-0.11 kcal/mol
11,TCCTGCACGTGTTGTG,0.03 kcal/mol
12,GGGTCCACGTGGTGAT,0.09 kcal/mol
13,GGGTGCACGTGGGCGT,-0.01 kcal/mol
14,AGGCGCACGTGGCGAG,-0.08 kcal/mol
15,AGATCCACGTGGAGGG,-0.11 kcal/mol
16,CGCTTCACGTGTGGTT,0.32 kcal/mol
17,TACAACACGTGTTTTG,0.04 kcal/mol
18,TTAATCACGTGGTGGT,0.03 kcal/mol
19,GTATTCACGTGTTCTG,0.14 kcal/mol
20,GATGGCACGTGGGGGC,-0.16 kcal/mol
21,GTGAGCACGTGATGGA,0.21 kcal/mol
22,TAAGGCACGTGAAGAT,0.11 kcal/mol
23,GGGAGCACGTGGCGTC,-0.1 kcal/mol
24,TGATACACGTGTGGTT,0.07 kcal/mol
25,ATAGTCACGTGTGCTG,-0.05 kcal/mol
26,TGAATCACGTGGTAGG,0.17 kcal/mol

row,Sequence,relative binding free energy
1,TGCGTCACGTGGATAG,-0.03 kcal/mol
2,CAGTACACGTGGGGGC,-0.08 kcal/mol
3,AGGGGCACGTGATTAG,-0.12 kcal/mol
4,GTCATCACGTGGGAGA,0.14 kcal/mol
5,GCTATCACGTGGAGTT,0.15 kcal/mol
6,GTTTTCACGTGCGGCT,0.24 kcal/mol
7,CGGAGCACGTGCGGGG,-0.14 kcal/mol
8,ATTTACACGTGCGGGG,0.16 kcal/mol
9,TACAGCACGTGGGGTG,-0.24 kcal/mol
10,TTTTGCACGTGCAGAG,0 kcal/mol
11,AGTGGCACGTGGAGGC,-0.19 kcal/mol
12,CACGTCACGTGTGTTT,0.15 kcal/mol
13,TGGTTCACGTGTTTAG,0.29 kcal/mol
14,GAGGACACGTGGACGG,0.08 kcal/mol
15,TGAGCCACGTGGTGAG,-0.1 kcal/mol
16,TTGTGCACGTGGACAG,-0.06 kcal/mol
17,ACCTGCACGTGGGTGG,-0.12 kcal/mol
18,GGGACCACGTGGCGGT,-0.12 kcal/mol
19,TATGTCACGTGGTGTC,-0.03 kcal/mol
20,TGCGGCACGTGACTTG,0.04 kcal/mol
21,AGGGGCACGTGATTGT,0.08 kcal/mol
22,GGAGCCACGTGTTTGT,0.14 kcal/mol
23,AATTGCACGTGAATTG,0.31 kcal/mol
24,TAGAGCACGTGGATCG,0.01 kcal/mol
25,ATGATCACGTGGTGTA,0.12 kcal/mol
26,TGTTACACGTGACTTG,0.18 kcal/mol

row,Sequence,relative binding free energy
1,GTTTTCACGTGAGCTT,0.31 kcal/mol
2,ATCAACACGTGGTTGG,0 kcal/mol
3,TTTCTCACGTGGAGGA,0.29 kcal/mol
4,GGTCTCACGTGAAGGG,0.24 kcal/mol
5,TATATCACGTGTTTTC,0.1 kcal/mol
6,AACGGCACGTGTTCGG,0.05 kcal/mol
7,CCAGGCACGTGGGTGG,-0.24 kcal/mol
8,TGATGCACGTGGCCGG,-0.15 kcal/mol
9,TTGGTCACGTGGGTTA,0 kcal/mol
10,GGCTTCACGTGCTGGT,0.22 kcal/mol
11,GTCGTCACGTGGATGT,0.08 kcal/mol
12,TGAGCCACGTGATTGT,0.15 kcal/mol
13,TTCTACACGTGAGATG,0.43 kcal/mol
14,ATGGGCACGTGCAGGA,-0.03 kcal/mol
15,TTCAACACGTGGGTTT,-0.04 kcal/mol
16,ATAGGCACGTGGGCGA,-0.18 kcal/mol
17,ATGTTCACGTGCGCTT,0.21 kcal/mol
18,TTTGGCACGTGAAGAT,0.21 kcal/mol
19,CGTTGCACGTGCAGGG,-0.03 kcal/mol
20,ATGTTCACGTGTTTTG,0.1 kcal/mol
21,AATGTCACGTGAAGTT,0.35 kcal/mol
22,TAAAACACGTGTATGT,-0.03 kcal/mol
23,GGCTGCACGTGGTGGT,0.02 kcal/mol
24,ATCTGCACGTGGAAGT,0.1 kcal/mol
25,GTTTACACGTGTGAGG,0.21 kcal/mol
26,ATGGTCACGTGGATGC,0.11 kcal/mol

row,Sequence,relative binding free energy
1,ATCGACACGTGGTGTG,-0.11 kcal/mol
2,CTGTACACGTGGGTTT,0.02 kcal/mol
3,AAGGTCACGTGACGGG,0.2 kcal/mol
4,GAAGACACGTGATGTT,0.23 kcal/mol
5,GGCATCACGTGGGAAG,0.22 kcal/mol
6,GATTACACGTGGGAGT,0.13 kcal/mol
7,TTTTACACGTGGGCTG,-0.03 kcal/mol
8,GTATGCACGTGCCGTT,-0.01 kcal/mol
9,ATGGTCACGTGTCTGG,0.07 kcal/mol
10,CGATACACGTGGAGTT,0.12 kcal/mol
11,CGTGGCACGTGAGGTC,0.07 kcal/mol
12,TGTATCACGTGAGCAT,0.24 kcal/mol
13,CTGGGCACGTGTGAAG,0.04 kcal/mol
14,GTGTACACGTGCAGTG,0.01 kcal/mol
15,AGGAACACGTGGCAGG,-0.06 kcal/mol
16,TCAGGCACGTGAGAGT,0.24 kcal/mol
17,TGCAGCACGTGCGGGT,-0.14 kcal/mol
18,GGGGGCACGTGGGCTC,-0.08 kcal/mol
19,ATCAGCACGTGGCGGG,-0.04 kcal/mol
20,GGTTGCACGTGTGCAT,-0.05 kcal/mol
21,GACTTCACGTGTGATT,0.49 kcal/mol
22,TGTCGCACGTGTTTAG,-0.06 kcal/mol
23,GGGTTCACGTGGACGC,0.36 kcal/mol
24,TCGGGCACGTGGTAGT,-0.14 kcal/mol
25,AGTGCCACGTGTGCGA,0 kcal/mol
26,GTAATCACGTGGTGAA,0.13 kcal/mol

row,Sequence,relative binding free energy
1,TTGTTCACGTGCTTCT,0.34 kcal/mol
2,TGTTGCACGTGGTCTA,-0.14 kcal/mol
3,TTTCACACGTGTGCTG,0.18 kcal/mol
4,TATTGCACGTGAGCGT,-0.11 kcal/mol
5,ATATGCACGTGTGGAT,0.06 kcal/mol
6,GGCGTCACGTGGAGTG,0.15 kcal/mol
7,GTTCTCACGTGGAGGG,0.25 kcal/mol
8,TTTCTCACGTGTTGGG,0.31 kcal/mol
9,AGTGACACGTGGCGGG,0 kcal/mol
10,GTGTACACGTGTGTGC,0.04 kcal/mol
11,GATATCACGTGGAGGA,0.19 kcal/mol
12,GTGTGCACGTGGGTTC,-0.02 kcal/mol
13,TTTAACACGTGTTGTA,-0.07 kcal/mol
14,TGGTTCACGTGGGGTT,0.21 kcal/mol
15,ATTAACACGTGTTATG,0 kcal/mol
16,TTTTACACGTGTTGTC,0.1 kcal/mol
17,TTTGCCACGTGATGTT,0.14 kcal/mol
18,TTAATCACGTGCTATG,0.05 kcal/mol
19,CTGGGCACGTGGAGAA,-0.01 kcal/mol
20,TTTTCCACGTGGGGTC,-0.06 kcal/mol
21,ATCTACACGTGTTAGG,0 kcal/mol
22,TGTGGCACGTGCCGGC,-0.14 kcal/mol
